Over roughly 16,000 sequences, “Z-score” has its median near -0.37; the highest 2% begin near 3.1. Some of the results follow.
System: RBM10 RRM1-ZnF-RRM2 (GST-tagged construct)
Test: RNAcompete 7-mer binding Z-score; higher = stronger binding preference
How it was run: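 A one-sided Z-score for enrichment, taken across the probes containing each heptamer motif, was assigned to every such motif. The RNA came from a designed pool of 241 399 sequences up to 41 nt (1.5 nmol), bound by 20 pmol of GST-tagged RBM10 constructs in 1 ml Hepes pH 7.8 buffer with glutathione Sepharose beads for 30 min at 4°C. Four 2-min washes at 4°C preceded identification of bound RNA by microarray hybridisation.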

Sequence	RNAcompete 7-mer binding Z-score
GAAUCCU	-0.803
UGAUCAC	-0.136
GGCUGUC	-0.504
UGGUACG	1.22
GCCCCCC	-0.246
CGUACGC	-0.577
CUACUGC	-0.606
CGGCUUU	-0.857
UUCUCCC	-0.766
GAUACUU	-0.694
AUCUCUC	-0.89
CGGGCCG	0.133
GUUAAUC	-0.271
GAGCCGU	-0.391
UUUACGC	-0.799
ACCAGCC	-0.675
UCGCCUG	-0.755
GUCUCUU	-0.661
ACGGGUG	3.24
AAACCCA	-0.661
CUCCUUG	-0.803
GGGAGUC	1.83
AGCCAGG	0.661
UGAUGAU	-0.0598
UGAUAAU	-0.431

Sequence	RNAcompete 7-mer binding Z-score
UUACCCG	-0.737
CCCGUCU	-0.854
CGUCGGA	0.0859
GUUCAAU	-0.242
UUCUGGU	-0.424
GAUGAUU	-0.107
CAACCAU	-0.519
GAUAGUC	-0.311
CGCGUGA	-0.158
AUUCAAU	-0.231
UACCGAG	-0.165
GACCCUG	-0.704
UCUGUCG	-0.69
UGACGUU	-0.544
CAGGGCU	0.64
ACUCUGC	-0.974
AUGAUGA	0.184
GACUAUG	-0.165
CACGUGG	0.691
GAAAAAU	-0.0415
GAAGAUA	0.563
GCAACAU	-0.227
AUAAUCU	-0.65
CGUCGGC	-0.216
UGAUGUU	-0.53

Sequence	RNAcompete 7-mer binding Z-score
GUUACCU	-0.588
AGUGCAA	0.53
GCUCUUA	-0.759
UUGAAGA	-0.00877
AUCUAAC	-0.741
UCCGAUG	-0.632
GACUCUC	-0.901
GUUAGGC	1.25
UUGCUUG	-0.843
CCACCAG	-0.522
GCAAAGA	0.425
UCUCGCA	-0.708
GGUCAGC	0.716
GGUCAUG	0.869
GAGAACG	1.31
UUGUGCG	-0.315
CAGGUUG	1.63
UAUCAUU	-0.661
CAGGCCA	0.297
CACAAAG	-0.34
AUAGCGU	0.00944
ACCACCA	-0.57
AUAAAGG	1.74
AAAGCAC	-0.398
UUUGCCU	-0.974

Sequence	RNAcompete 7-mer binding Z-score
GGGCUAG	1.47
AAAGCUA	-0.213
CAAGGUG	2.13
GGAACCC	-0.111
CGGAUGC	0.392
GCAGCGC	0.108
ACCAUUG	-0.584
AAGUUCU	-0.566
UCUAAAA	-0.57
UCCGCCU	-0.883
CAAGAUC	-0.398
ACGCUAG	-0.322
GCUUCAG	-0.533
GGAAUUU	0.301
ACCGUAA	-0.701
AACUCGU	-0.861
CAUAUGG	0.497
UUAUUCC	-0.861
GAAGUUA	0.25
UCUCUCU	-0.723
CUAGUAC	-0.431
AACCUCA	-0.741
CUCCGAC	-0.664
UUGUAGA	-0.0124
GCACGUA	0.162

Sequence	RNAcompete 7-mer binding Z-score
GUUUCUC	-0.497
CUGCCUG	-0.781
UCGUGUG	-0.114
CUCUGAU	-0.919
UUUUGCC	-0.868
GACCCCA	-0.825
UUAUGAU	-0.497
CGAGAAG	0.574
UCGGGAC	0.523
UUACUUG	-0.628
AAGUUUC	-0.573
CUCGCAC	-0.664
AGGGAGC	2.32
AAAUGCA	0.0896
CUUCCGC	-0.879
UAGAGAG	0.993
CAUCAUA	-0.482
GCGGCCU	-0.3
AACGUAU	-0.144
UUAGCAG	0.155
AUUAGAC	-0.53
GGGGCGA	2.49
GUUAGCC	-0.541
CAAGAAC	-0.446
AGUAUUU	-0.526

Sequence	RNAcompete 7-mer binding Z-score
GGUGAUC	1.07
CCGGCAC	-0.388
GAUAAAU	0.0204
ACCAACC	-0.726
GGUCCCA	-0.315
GUGGCGA	2.29
AAAAAGG	2.19
CGACCGG	0.399
GAAAAUU	-0.111
AGUGCAG	0.683
UAAAUAC	-0.369
CCCUGCU	-0.959
CACCACA	-0.548
CGGAAUC	-0.0816
UCUAGGA	0.0568
ACGUAAC	-0.154
UUGAAAA	-0.511
UCUCUAU	-0.77
GCCGUGU	-0.322
GUUACGU	-0.00877
GACAAAA	0.257
CCGCCAA	-0.814
ACGGCAA	0.57
UUACACG	-0.511
UGUACAC	-0.296

Sequence	RNAcompete 7-mer binding Z-score
UUCCCCU	-0.653
GGAGCAG	2.09
AAUCUGA	-0.679
GGUGCUU	0.465
UUUAGCG	-0.511
CAGCUCU	-0.748
GCUGCAU	-0.409
GGCCAAA	0.0714
GGCUCAG	0.213
UAUACUG	-0.493
UGACCGU	-0.694
AUCAGUC	-0.442
GUCACUC	-0.624
CACAAUA	-0.388
AUGCGAC	-0.0525
GCUUCGG	-0.238
CAAGUAA	-0.162
ACUAUGU	-0.526
GGGCAGA	2.25
CACUUGC	-0.857
GGCACCA	0.217
UGUAGAC	-0.0415
GGAUGAG	2.91
CGCUUCU	-1.01
CAUUUAU	-0.919

Sequence	RNAcompete 7-mer binding Z-score
GGCGCUA	0.243
UGCACAU	-0.362
ACGUAAA	-0.0306
GUUGGAU	1.56
GUUACUG	-0.107
CGUAAUU	-0.464
GCCCAGC	-0.661
AGACACU	-0.93
GGUAAGA	2.22
UCGUUGG	0.399
GUGGCAA	1.68
GGACCUG	-0.318
GAACCAA	-0.198
UACAUGC	-0.373
CCUCUAG	-0.81
CUAGAUU	-0.661
CUGUAUG	-0.515
GCAUGAG	0.752
AUUUCCC	-0.828
CCCACAG	-0.635
CUCCUCG	-0.748
GUCCCUA	-0.748
GUCCUUU	-0.752
UAUAAUG	0.0714
UAUAUGG	0.924

Sequence	RNAcompete 7-mer binding Z-score
GCGUCGC	-0.0598
AGGGUUC	0.996
AAAAUAA	-0.369
UUAUGUU	-0.537
CCCUCAG	-0.81
CGGGUAC	1.47
AGCGAGA	0.782
UGAGUGA	0.949
UAAAUGU	-0.391
UAGAAUA	-0.0925
CUUUAUG	-0.927
UUGCGAA	-0.246
GUCCAGU	-0.337
GCACCCU	-0.704
UCUUCUG	-0.712
CUUUCAG	-0.628
AACCUUC	-0.839
ACGAGCC	-0.613
CACCAUG	-0.362
CGGGACG	1.5
GGUUAAG	1.95
UUUUUCU	-0.744
GACGGAC	0.454
CGCGACG	-0.602
CCAAGGA	0.556

Sequence	RNAcompete 7-mer binding Z-score
CCCCCGA	-0.315
UGACAUU	-0.606
AAGGCUU	-0.0743
GCCAGUA	-0.0889
ACCAAGG	0.756
CGCCAGA	-0.497
CAUUGAC	-0.442
UCGAUAA	-0.508
CAUUCGA	-0.744
UAGCGAU	-0.133
GAGGGAA	3.6
AAAAUGA	-0.111
CUCUCGU	-0.803
GCGCCUC	-0.672
CGCGACC	-0.573
CAAAUCU	-0.781
UCCUUGU	-0.803
UCUUUCC	-0.781
CGAGGCC	-0.165
GUGACUU	-0.267
UACUGCU	-0.726
GCGGUAU	0.574
CUUAAAA	-0.737
GGCAUUA	0.275
GCGAGUA	0.716

Sequence	RNAcompete 7-mer binding Z-score
UCGGUAU	-0.078
UGGAAUA	1.27
AGGCUUU	-0.657
CAAGCCU	-0.806
UUGACGG	0.399
GAUUAAG	0.691
CUAUGCU	-0.839
UUCGAAA	-0.595
AUUGUAU	-0.471
AACUUGA	-0.69
ACCGUAC	-0.686
ACAUUCA	-0.533
AGGUUCU	-0.384
AGCUCUG	-0.734
UGAAGGU	2.14
UCUACUA	-0.759
UGGGCCA	1.07
CCGUGCU	-0.628
ACGGAGA	1.3
GUGCCAA	-0.0343
AUAGGCU	0.25
GGUGUAU	1.18
AACUCCA	-0.621
CUCUUCA	-0.89
UAAGUGC	-0.3

Sequence	RNAcompete 7-mer binding Z-score
GAUAGUU	0.0604
CAUGCAG	-0.00877
GCAUAUU	-0.384
UGUAAUC	-0.406
UAGUGAU	0.246
GUCCUAG	-0.504
AAGCUAG	-0.256
CAGCGAG	0.763
ACACACA	-0.227
CAGUUUA	-0.657
UUUACUU	-0.803
CUACGGA	0.101
CACAUUU	-0.985
UUGCGGG	1.2
CAGAAAC	-0.235
CCUCCUC	-0.759
UUUGAUU	-0.471
AACUAGU	-0.329
CCGCAAG	-0.715
CGUGCAA	-0.118
CUUUUGA	-0.755
GUUGAGG	3.13
GACGUAU	-0.118
CGAGUCA	-0.224
GAAGAGG	2.94

Sequence	RNAcompete 7-mer binding Z-score
CAAAAAU	-0.46
UCGGUUA	-0.289
UCAGAGA	-0.067
AAAUCAU	-0.46
ACCAUGU	-0.555
CGGCUGU	-0.377
UCGGACA	0.104
CUCUGUG	-0.69
CAGUUGG	0.538
UACCACG	-0.173
GCCCAAU	-0.708
UUGGAAG	1.47
AUCGAGU	-0.0306
GUGCGAG	1.67
AGAUGGU	1.63
AGGAGAG	2.2
CCCAUAU	-0.777
CCUGCCC	-0.701
GACAGAG	0.84
ACUAUCU	-0.77
AACAUAU	-0.551
AUGACGU	-0.198
AUAGCUA	-0.38
UGUAGUU	-0.191
ACUAAUA	-0.584

Sequence	RNAcompete 7-mer binding Z-score
CCAGGAA	0.647
CGGAGCC	0.108
ACUGGUU	-0.118
CCAACGU	-0.53
AAAGCGC	-0.136
CCUAUUA	-0.912
CGCAUCU	-0.803
AGUCUAA	-0.406
GGCUGUG	0.825
AGCCCUU	-0.883
GUUAGAA	0.734
CCUUAAG	-0.766
UAUCUAG	-0.464
AAUCAAC	-0.398
UCGUAUG	-0.122
GAAAGUC	-0.0962
GGCGCCU	-0.388
UGAUAUU	-0.621
GCGGAAA	1.47
UAGGCGU	1.16
GUGUUUC	-0.0816
ACACGAG	0.199
UUUGAGA	-0.147
CGGCUUC	-0.697
UUGUCUC	-0.865

Sequence	RNAcompete 7-mer binding Z-score
UUUAAAG	-0.395
UUAUGCC	-0.879
GCAUGUU	-0.26
GUCCCAA	-0.581
CUGAUAA	-0.566
CCUUCGG	-0.606
UACGUGU	-0.304
CUAGUGU	-0.511
AUAAUGA	-0.0598
ACUCUUG	-0.785
UUCUUGU	-0.821
AUCAUUA	-0.409
AGGAUGC	0.887
UUAGGGA	2.36
CUAGGUC	-0.289
UGGACUU	-0.147
UCGUUCC	-0.715

From the supplement of paper PMC5499739
